# PubChem BioAssay AID504832 (National Center for Advancing Translational Sciences (NCATS), 2011)
# Among all 310,000 compounds or so, about 18,000 (5.8%) were called active. Inconclusive results, whose numbers are uncertain, are shown with a selection of clear calls. Calls come from the whole dose curve; as a rule, active = well fitted inhibition curve with a large enough effect; inconclusive = small, poorly fitted or top-dose-only effect, or another doubt; inactive = no such curve, though single readings can be large or run the other way. No potency is given beside an inconclusive call; the fits are too rough.
# Experiment: Primary qHTS for delayed death inhibitors of the malarial parasite plastid, 48 hour incubation
# Conditions: P. falciparum luciferase growth in erythrocytes; series mostly up to 28.7 µM
# Summary of the method: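 Compounds are pin-transferred into medium, infected erythrocytes (2% hematocrit, 0.1% parasitemia final) are added, and plates sit one parasite generation at 37 C in 5% CO2. Detection reagent is then added and luminescence measured.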
# Potency is the fitted concentration of half-maximal effect; tags give direction and shape of the fitted curve.
row,Compound,Potency
1,C/C(=C\C(=O)c1ccccc1)NNc1nc2ccccc2s1,inactive
2,CCc1cc(C(=O)OC)c(NC(=O)CN2CCN(C(=O)C3CCCO3)CC2)s1 (configuration not stated),"inconclusive [inhibitor, partial curve, poor fit]"
3,Cc1cc2c(=O)n(C)c(SCC(=O)Nc3ccccc3)nc2s1,"inconclusive [inhibitor, single point]"
4,COc1ccc(NS(=O)(=O)c2cc(OCC(N)=O)c(C)cc2Cl)cc1,active: 10.4 µM
5,COC(=O)c1nnn(-c2cccc(Cl)c2)c1C(=O)OC,inactive
6,c1ccc(CN(Cc2ccco2)C(c2ccncc2)c2nnnn2C2CCCC2)cc1 (configuration not stated),"inconclusive [inhibitor, full curve, poor fit]"
7,CCn1c(/C=C/Nc2ccccc2)[n+](CC)c2ccc(C(=O)OCC(F)(F)F)cc21,"inconclusive [inhibitor, single point]"
8,COCCN(C(=S)Nc1ccc(C)cc1C)C(C)c1ccco1 (configuration not stated),"inconclusive [inhibitor, single point]"
9,Cc1ccc(CSc2ccc(S(=O)(=O)N3CCOCC3)cn2)cc1,"inconclusive [inhibitor, partial curve, poor fit]"
10,CCN(C(=O)CN1C(=O)S/C(=C\C=C\c2ccccc2)C1=O)C1CCS(=O)(=O)C1 (configuration not stated),active: 7.38 µM
11,O=C(Nc1ccc(Cl)cc1)/C(=C/c1ccc([N+](=O)[O-])cc1)c1nc2ccccc2s1,active: 2.08 µM
12,COc1ccc(S(=O)(=O)NCCc2c(C)nn(C)c2Oc2ccccc2)cc1,"inconclusive [inhibitor, single point]"
13,CCCOC(=O)c1ccc(Oc2cn[nH]c2-c2ccc(OCC)cc2O)cc1,active: 4.65 µM
14,Fc1ccc(NC(=S)Nc2ccccc2N2CCOCC2)cc1Cl,"inconclusive [inhibitor, single point]"
15,C=CCNc1nc2c(c(=O)n(C)c(=O)n2C)n1CC(=C)C,inactive
16,COc1ccc(-c2csc(NC(=O)COc3ccc(N(C)S(=O)(=O)c4ccc(C)cc4)cc3)n2)cc1,"inconclusive [inhibitor, single point]"
17,CN(Cc1cccc(F)c1)C(=O)Cc1ccc(S(=O)(=O)N2CCOCC2)s1,"inconclusive [inhibitor, single point]"
18,COc1ccc(N2CCN(CCCNC(=O)C(=O)c3c(C)[nH]c4ccccc34)CC2)cc1,active: 5.22 µM
19,CCC(c1nnnn1Cc1ccco1)N(CCc1ccccc1)Cc1cc2cc(C)ccc2[nH]c1=O (configuration not stated),active: 13.1 µM
20,O=C(NCCN1CCCC1)c1ccc2c(c1)N(Cc1ccc(F)cc1)C(=O)c1ccccc1S2=O (configuration not stated),active: 11.7 µM
21,COc1cccc(N2CCN(c3ccc4nnc(CCC(=O)Nc5ncccc5C)n4n3)CC2)c1,"inconclusive [inhibitor, single point]"
22,CCCCCNC(=O)C1CC(=O)OC12CCCCC2 (configuration not stated),inactive
23,COc1ccc(N2C(=O)CC(N(CCc3ccccc3)C(=O)/C=C/C(=O)O)C2=O)cc1 (configuration not stated),inactive

row,Compound,Potency
1,NC(=O)CC(NC(=O)Cc1cccc2ccccc12)c1ccc(N2CCN(c3ccccc3)CC2)c([N+](=O)[O-])c1 (configuration not stated),"inconclusive [inhibitor, partial curve, poor fit]"
2,Cc1noc(C)c1S(=O)(=O)Nc1cc(C(F)(F)F)ccc1N1CCOCC1,"inconclusive [inhibitor, single point]"
3,O=C(Nc1cccnc1)c1sc(Nc2ccccc2)nc1-c1ccccc1,inactive
4,Cc1cc(C)n(-c2nc(C)nc(NCc3ccccc3)n2)n1,inactive
5,Nc1c(C(=O)NCc2ccco2)c2nc3ccccc3nc2n1Cc1ccc(F)cc1,active: 1.85 µM
6,Cc1ccc(C(=O)/C=C/c2cn(CN3CCN(C)CC3)c3ccccc23)cc1,inactive
7,Cn1nc(C(F)(F)F)c(-c2ccc(Br)cc2)c1NC(=O)Nc1ccc(F)cc1F,"inconclusive [inhibitor, full curve]"
8,COc1ccc(CCNC(=O)NC2CCCCC2)cc1,inactive
9,O=C(Nc1ccc(Cl)cc1)N1CCN(c2ccccc2)CC1,"inconclusive [inhibitor, partial curve, poor fit]"
10,COc1ccc(/C=N/Nc2c(Cl)cc(Cl)cc2Cl)cc1CN1CCOCC1,"inconclusive [inhibitor, partial curve, poor fit]"
11,CC(c1ccccc1)n1cc(C(=O)NCC2COc3ccccc3O2)nn1 (configuration not stated),"inconclusive [inhibitor, single point]"
12,CC(=O)N[C@H]1[C@H](O[C@@H]2c3ccc(c(Cl)c3)Oc3cc4cc(c3O[C@@H]3O[C@H](CO)[C@@H](O)[C@H](O)C3C)Oc3ccc(cc3Cl)C[C@H]3NC(=O)[C@@H](N)c5ccc(O)c(c5)Oc5cc(O)cc(c5)[C@H](NC3=O)C(=O)N[C@H]4C(=O)N[C@H]3C(=O)N[C@@H]2C(=O)N[C@@H](C(=O)O)c2cc(O)cc(O[C@H]4O[C@H](CO)[C@@H](O)C(O)[C@@H]4O)c2-c2cc3ccc2O)O[C@H](CO)[C@@H](O)[C@@H]1O (some centres not stated),inactive
13,CCC(C)(C)NC(=O)C(c1cccn1C)N(C(=O)Cn1nnc2ccccc21)c1ccc(OC)cc1OC (configuration not stated),active: 8.28 µM
14,CCc1c(C)nc2ncnn2c1NCCc1ccc(Cl)cc1,"inconclusive [inhibitor, partial curve]"
15,COC(=O)/C=c1/sc2n(c1=O)CCN=2,inactive
16,CCC(C)(C)NC(=O)CN(Cc1cccs1)C(=O)C(=O)Nc1ccc2c(c1)OCCO2,"inconclusive [inhibitor, full curve, poor fit]"
17,CCOC(=O)C1=C(C)Nc2nc(SCC)[nH]c(=O)c2C1c1ccncc1 (configuration not stated),"inconclusive [inhibitor, partial curve, poor fit]"
18,COCCCNCCC(CCC(C)C)c1ccc2c(c1)OCO2 (configuration not stated),"inconclusive [inhibitor, single point]"
19,O=C(CNC(=O)C(c1ccccc1)c1ccccc1)OCC(=O)c1cccs1,inactive
20,Cc1ccc2c(c1)-c1c(cnn1CC(=O)NC(C)CCc1ccco1)CO2 (configuration not stated),"inconclusive [inhibitor, partial curve, poor fit]"
21,COc1cccc(-c2ccc(=O)n(CC(=O)Nc3cc4c(cc3NC(C)=O)OCCO4)n2)c1,"inconclusive [inhibitor, single point]"
22,CCCc1ccc(C(=O)NC(=O)c2ccccc2O)cc1,active: 0.0657 µM
23,CC(Nc1cccc2ccccc12)C(=O)N/N=C/c1ccc([N+](=O)[O-])cc1 (configuration not stated),inactive

row,Compound,Potency
1,Cc1cc(-n2c(C)cc(C(=O)CN3C(=O)NC4(CCCCC4)C3=O)c2C)no1,active: 13.1 µM
2,NC(=O)c1c(NC(=O)c2c(F)cccc2F)sc2c1CCN(Cc1ccccc1)C2,inactive
3,CC(C)(O)/C=C1/Oc2ccccc2C1N1CCCCC1 (configuration not stated),inactive
4,CCOC(=O)c1ccc(NC(=O)COc2ccccc2CNCCc2ccccc2)cc1,"inconclusive [inhibitor, single point]"
5,c1ccc2c(c1)CSc1sccc1C2=C1CCNCC1,active: 11.7 µM
6,CC12CCC(=O)N1C(C(=O)N1CCN(S(=O)(=O)c3ccc(Br)cc3Cl)CC1)CS2 (configuration not stated),"inconclusive [inhibitor, full curve, poor fit]"
7,O=C(CNC(=O)C1CCCCC1)NCc1ccco1,inactive
8,CCOc1ccc(/C=N/OC(C)C(=O)NCc2ccc3c(c2)OCO3)cc1 (configuration not stated),inactive
9,COc1cccc(C2C(C(=O)Nc3cccnc3)=C(C)Nc3nnnn32)c1OC (configuration not stated),"inconclusive [inhibitor, single point]"
10,CCOC(=O)c1ccc2c(c1)n(CC)c(C)[n+]2CC,"inconclusive [inhibitor, partial curve]"
11,CCCNC(=O)c1ccc(N2CCC3(CC2)CC(c2cccc(Br)c2)=NO3)c(NC(=O)c2ccco2)c1,active: 0.738 µM
12,CN(Cc1cn(C)nc1-c1ccccc1F)CC1CCN(Cc2ccccc2)CC1,"inconclusive [inhibitor, partial curve, poor fit]"
13,CCC(C)(C)n1nnnc1C(c1cccnc1)N1CCCc2ccccc21 (configuration not stated),"inconclusive [inhibitor, single point]"
14,CN(c1ccc(F)cc1)S(=O)(=O)c1ccc(Cl)c(C(=O)NCC(c2ccco2)N2CCCCC2)c1 (configuration not stated),"inconclusive [inhibitor, single point]"
15,CC1CCN(CC(=O)c2cccc(C(F)(F)F)c2)CC1,"inconclusive [inhibitor, single point]"
16,COCCN1Cc2cccc(C(=O)NC3CCCCCC3)c2C1=O,"inconclusive [inhibitor, partial curve, poor fit]"
17,CCn1cc(SCC(=O)NCc2ccc3c(c2)OCO3)c2ccccc21,"inconclusive [inhibitor, partial curve, poor fit]"
18,N#Cc1ccc(C(=O)Nc2cc(-c3ccc(F)cc3)nn2-c2ccccc2)cc1,"inconclusive [inhibitor, single point]"
19,NC(=O)[C@H]1CC2(CC(c3cccc(NC(=O)CC(c4ccccc4)c4ccccc4)c3)=NO2)CN1C(=O)c1ccccc1C(=O)c1ccccc1 (some centres not stated),active: 9.28 µM
20,Cc1ccnc(N2CCN(C(=O)CSc3nc4ccccc4nc3N3CCCCC3)CC2)c1,active: 13.1 µM
21,CCOC(=O)c1ccc(NC(=O)N2CCN(c3ccccc3OC)CC2)cc1,"inconclusive [inhibitor, partial curve]"
